{"source": "PubChem BioAssay AID2147", "about": "(National Center for Advancing Translational Sciences (NCATS), 2009)", "note": "Values joined by “and” are separate entries in the source; they are usually repeats but may differ in a detail not shown here. Identical values can stand only once. Screen size: about 230,000 compounds; about 3,600 (1.6%) were called active. Inconclusive means that the source gave no clear call. Such entries were picked first, then a sample of the others. Calls come from the whole dose curve; as a rule, active = well fitted inhibition curve with a large enough effect (not every such curve was filed as active); inconclusive = small, poorly fitted or top-dose-only effect, or another doubt; inactive = no such curve, though single readings can be large or run the other way. Where the call is inconclusive, the potency comes from a doubtful curve fit.", "data": [{"target": "Lysine-specific demethylase 4E (Homo sapiens) (UniProt B2RXH2)", "sequence (B2RXH2 whole entry, looked up, the tested form may be a part)": "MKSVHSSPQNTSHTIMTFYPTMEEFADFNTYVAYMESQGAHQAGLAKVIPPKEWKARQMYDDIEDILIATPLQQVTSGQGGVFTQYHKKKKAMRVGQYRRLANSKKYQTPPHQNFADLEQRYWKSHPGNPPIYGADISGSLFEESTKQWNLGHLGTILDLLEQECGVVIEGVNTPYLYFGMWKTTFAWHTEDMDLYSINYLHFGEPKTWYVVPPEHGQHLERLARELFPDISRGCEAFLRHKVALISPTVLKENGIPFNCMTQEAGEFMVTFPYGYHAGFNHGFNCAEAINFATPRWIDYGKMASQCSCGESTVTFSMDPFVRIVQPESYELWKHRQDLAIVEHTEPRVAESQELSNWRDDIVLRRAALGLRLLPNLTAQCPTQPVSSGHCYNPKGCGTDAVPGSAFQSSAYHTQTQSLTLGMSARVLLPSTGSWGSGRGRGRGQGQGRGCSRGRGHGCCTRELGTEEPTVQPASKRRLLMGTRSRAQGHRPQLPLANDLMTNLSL", "assay": "qHTS Assay for Inhibitors of Human Jumonji Domain Containing 2E (JMJD2E)", "settings": "JMJD2E catalytic domain, FDH-coupled NADH fluorescence (FDH is formaldehyde dehydrogenase); series mostly up to 57.1 µM", "values": [{"compound": "CCOC(=O)CC(=O)CSC1=C(C#N)C(c2ccccc2OC)CC(=O)N1", "note": "(stereo not given); note: nearly all actives have a fitted effect of over 50% in size; note: potency is the fitted concentration of half-maximal effect; tags give direction and shape of the fitted curve", "Potency": "inconclusive: 39.8 µM [inhibitor, single point]"}, {"compound": "Cc1ccc(/C([O-])=C(/C(=S)NCCN2CCOCC2)[n+]2ccccc2)cc1[N+](=O)[O-]", "Potency": "inactive"}, {"compound": "Cc1c(/C(O)=C2/C(=O)C(=O)N(CCN3CCOCC3)C2c2ccccn2)cnn1-c1ccccc1", "note": "(stereo not given)", "Potency": "inconclusive: 31.6 µM [inhibitor, single point]"}, {"compound": "CN(C)c1ccc(/C=N\\NC(=O)c2ccc(Cn3cc(Cl)cn3)cc2)cc1", "Potency": "inconclusive: 39.8 µM [inhibitor, single point]"}, {"compound": "CCOC(=O)c1ccc(NC(=O)c2cn(CCC#N)nc2-c2ccc3c(c2)OCCO3)cc1", "Potency": "inconclusive: 35.5 µM [inhibitor, single point]"}, {"compound": "CC(=O)Oc1cc(-c2coc3cc(OC(C)=O)c(OC(C)=O)c(OC(C)=O)c3c2=O)cc(OC(C)=O)c1OC(C)=O", "Potency": "active: 3.16 µM"}, {"compound": "O=C(CCCn1c(=O)oc2ccccc21)N1CCc2ccccc2C1", "Potency": "inactive"}, {"compound": "Cc1cc2c(=O)n(Cc3ccco3)c(SCC(=O)N3CCCc4ccccc43)nc2s1", "Potency": "inactive"}, {"compound": "Cc1sc2ncnc(-n3nnc4ccccc43)c2c1C", "Potency": "inconclusive: 11.2 µM [inhibitor, partial curve]"}, {"compound": "N[C@H](CCC(=O)N[C@H](CSN=O)C(=O)NCC(=O)O)C(=O)O", "Potency": "inconclusive: 31.6 µM [inhibitor, single point]"}, {"compound": "CCNC(=S)N(CCc1c(C)[nH]c2ccc(C)cc12)Cc1cc(OC)c(OC)c(OC)c1", "Potency": "inactive"}, {"compound": "Cc1cc(C(=O)N/N=C/c2ccc(-c3ccc(C)c(Cl)c3)o2)n[nH]1", "Potency": "inconclusive: 4.47 µM [inhibitor, single point]"}, {"compound": "CCc1cc2c(=O)[nH]c(-c3ccccn3)nc2s1", "Potency": "inactive"}, {"compound": "Cc1ccc(C(=O)Nc2sc(Cc3ccc4c(c3)OCO4)c(C)c2C(N)=O)cc1", "Potency": "inconclusive: 8.91 µM [inhibitor, full curve, poor fit]"}, {"compound": "CCN(C(=O)c1c(C)cc(=O)oc1C)c1ccc2c(c1)OCO2", "Potency": "inactive"}, {"compound": "CC(=O)NC1C(=O)N=C(SCC(=O)Nc2ccc(C(F)(F)F)cc2Cl)NC1=O", "note": "(stereo not given)", "Potency": "inactive"}, {"compound": "COc1ccc2[nH]c(C)c(CCN(Cc3cccs3)C(=S)Nc3ccc(F)cc3)c2c1", "Potency": "inconclusive: 28.2 µM [inhibitor, single point]"}, {"compound": "CC(C)(C)CC(=O)Nc1cccc(-c2cn3cccnc3n2)c1", "Potency": "inconclusive: 31.6 µM [inhibitor, partial curve]"}, {"compound": "Cn1c(N)c(C(=O)CCl)c(=O)n(Cc2ccccc2)c1=O", "Potency": "inactive"}, {"compound": "CCOn1c(=O)c(-c2cccc3ccccc23)[n+]([O-])c2ccccc21", "Potency": "inactive"}, {"compound": "CC1(C)Cc2nc3oc4c(N5CCOCC5)ncnc4c3cc2CO1", "Potency": "inactive"}, {"compound": "Cc1cccc(C)c1OCC(=O)Nc1cccc(-c2nnc(-c3ccccc3)o2)c1", "Potency": "inconclusive: 31.6 µM [inhibitor, partial curve]"}, {"compound": "COC(=O)c1ccccc1NC(=O)C1CCN(C(=O)c2cc(OC)c(OC)c(OC)c2)CC1", "Potency": "inconclusive: 39.8 µM [inhibitor, single point]"}, {"compound": "COCCCNC(=O)c1ccc(N2CCOCC2)c(NS(=O)(=O)c2ccc(OC)cc2)c1", "Potency": "inactive"}, {"compound": "COCCCNC(=S)Nc1cc(C)c(C)cc1C", "Potency": "inactive"}, {"compound": "CCc1cc2c(=O)c(-c3cnn(-c4ccccc4)c3)c(C)oc2c(CN2CCCCC2)c1O", "Potency": "inconclusive: 31.6 µM [inhibitor, partial curve]"}, {"compound": "COc1cc2ncnc(Nc3cccc(Cl)c3)c2cc1OC", "Potency": "inconclusive: 14.1 µM [inhibitor, partial curve] and inconclusive: 28.2 µM [inhibitor, partial curve] and inconclusive: 25.1 µM [inhibitor, partial curve]"}, {"compound": "CN(C(=O)CC1C(=O)NCCN1Cc1ccc(F)cc1)C1CCOCC1", "note": "(stereo not given)", "Potency": "inconclusive: 35.5 µM [inhibitor, single point]"}, {"compound": "CC(=O)c1cccc(NC(=O)c2ccc3c(=O)n4c(nc3c2)CCCCC4)c1", "Potency": "inactive"}, {"compound": "CCOC(=O)Nc1nnc(-c2ccc(OC)cc2)s1", "Potency": "inconclusive: 22.4 µM [inhibitor, partial curve]"}, {"compound": "COc1ccc(/C=N/NC(=O)c2ccc(Cl)cc2)cc1Cn1cc(Cl)cn1", "Potency": "inconclusive: 39.8 µM [inhibitor, single point]"}, {"compound": "COc1ccc(C(=O)NCc2nnc(SCC(=O)N3CCc4ccccc43)n2CCc2ccccc2)cc1", "Potency": "inactive"}, {"compound": "CC(=O)c1ccc(N2CCN(C(=O)Nc3ccc(Cl)cc3)CC2)cc1", "Potency": "inconclusive: 25.1 µM [inhibitor, single point]"}, {"compound": "CN(C)C(=O)Nc1cnc2ccccc2c1", "Potency": "inconclusive: 39.8 µM [inhibitor, single point]"}, {"compound": "O=C(COc1ccccc1)Nc1ccc(-c2nnc(-c3ccco3)o2)cc1", "Potency": "inconclusive: 28.2 µM [inhibitor, partial curve]"}, {"compound": "N#Cc1nc(-c2ccccc2Cl)oc1NCC1CCCO1", "note": "(stereo not given)", "Potency": "inconclusive: 31.6 µM [inhibitor, partial curve]"}, {"compound": "O=C(O)CC(CC(=O)O)(C(=O)O)c1ccccc1", "Potency": "inactive"}, {"compound": "CCCn1nc2cc(C(=O)NCCc3cccs3)ccc2c1OCC", "Potency": "inconclusive: 28.2 µM [inhibitor, partial curve]"}, {"compound": "Cc1ccc(OCC(=O)NNC(=O)c2cccnc2)cc1C", "Potency": "inconclusive: 14.1 µM [inhibitor, partial curve, poor fit]"}, {"compound": "CCn1c(-c2cc(-c3cc(OC)ccc3OC)nc3ccccc23)n[nH]c1=S", "Potency": "inconclusive: 31.6 µM [inhibitor, single point]"}, {"compound": "Cc1oc(C(=O)O)cc1COc1cccc2cccnc12", "Potency": "inconclusive: 39.8 µM [inhibitor, single point]"}, {"compound": "CN(C)c1ccc(/C=N/OC(=O)Nc2ccccc2Cl)cc1", "Potency": "inconclusive: 35.5 µM [inhibitor, single point]"}, {"compound": "N#Cc1nc(-c2cccs2)oc1NCc1ccc2c(c1)OCO2", "Potency": "inconclusive: 22.4 µM [inhibitor, partial curve]"}, {"compound": "CCOc1cccc(-c2nnc3n2N=C(c2cc(OC)ccc2OC)CS3)c1", "Potency": "inactive"}, {"compound": "CCCCOC(=O)Oc1ccc2c(=O)c(Oc3cc(C)cc(C)c3)coc2c1", "Potency": "inconclusive: 28.2 µM [inhibitor, single point]"}, {"compound": "Cc1cccc(/C(N)=N/OC(=O)c2cccs2)c1", "Potency": "inactive"}, {"compound": "Nc1nc(-c2ccccc2)cn1N", "Potency": "inconclusive: 39.8 µM [inhibitor, single point]"}, {"compound": "C/C(=N\\NS(=O)(=O)c1ccc([N+](=O)[O-])cc1)c1cccs1", "Potency": "inactive"}, {"compound": "CSCCOC(=O)COc1ccc(/C=N/NC(=O)c2nn(C)cc2Cl)cc1", "Potency": "inactive"}, {"compound": "CCCCC1=CC2=C(c3ccco3)C(=O)C(C)(OC(=O)c3ccc(OC)cc3)C(=O)C2=CN1C1CCCCC1", "note": "(stereo not given)", "Potency": "inconclusive: 3.98 µM [inhibitor, single point]"}, {"compound": "Fc1ccc(COc2cccc(-c3n[nH]c(=S)o3)c2)cc1", "Potency": "inconclusive: 22.4 µM [inhibitor, partial curve]"}, {"compound": "Cc1cc(/C=C(\\C#N)C(=O)NCc2cccs2)c(C)[nH]1", "Potency": "inconclusive: 6.31 µM [inhibitor, single point]"}, {"compound": "Cc1[nH]nc2c1C1(CCN(Cc3ccccc3)CC1)C(C#N)=C(N)O2", "Potency": "inconclusive: 28.2 µM [inhibitor, partial curve]"}, {"compound": "O=c1cc(-c2ccc(O)cc2)oc2c(O)c(O)c(O)c(O)c12", "Potency": "active: 12.6 µM"}, {"compound": "O=C(COc1ccc(Cl)cc1Cl)NC(=S)N1CCCc2ccccc21", "Potency": "inactive"}, {"compound": "O=C(OCc1cccc(F)c1)c1ccc2c(c1)-c1ccccc1C2=O", "Potency": "inconclusive: 39.8 µM [inhibitor, single point]"}, {"compound": "CCOc1ccc(-n2cc(C(=O)Nc3cccc(Cl)c3)c3cc(OC)c(OC)cc3c2=O)cc1", "Potency": "inconclusive: 25.1 µM [inhibitor, single point]"}, {"compound": "O=C(N/N=C/c1ccc2c(c1)OCO2)c1cc2ccccc2o1", "Potency": "inconclusive: 14.1 µM [inhibitor, partial curve]"}, {"compound": "O=P(c1ccccc1)(c1ccccc1)c1nc(-c2ccc(Cl)cc2)oc1N1CCOCC1", "Potency": "active: 3.16 µM"}, {"compound": "O=C(CC1SC(=O)N(c2ccccc2)C1=O)Nc1ccc(Br)cc1", "note": "(stereo not given)", "Potency": "inactive"}, {"compound": "Cc1ccc(NC2=C(N3CCOCC3)C(=O)c3ccccc3C2=O)cc1", "Potency": "inconclusive: 35.5 µM [inhibitor, single point]"}, {"compound": "Cc1nn(CCC#N)c2nc(-c3ccccc3)cc(C(F)(F)F)c12", "Potency": "inconclusive: 35.5 µM [inhibitor, single point]"}, {"compound": "CCNCCC(CCC(C)C)c1ccc2c(c1)OCO2", "note": "(stereo not given)", "Potency": "inconclusive: 35.5 µM [inhibitor, single point]"}, {"compound": "CS(=O)(=O)N(CC(=O)NCCSCc1ccccc1)c1ccccc1", "Potency": "inactive"}, {"compound": "COCCNc1nc(C)cc(-c2cc(-c3ccc(Cl)cc3)on2)n1", "Potency": "inconclusive: 31.6 µM [inhibitor, single point]"}, {"compound": "C=C[C@@]1(C)CC(=O)[C@@]2(O)[C@@]3(C)[C@@H](O)CCC(C)(C)[C@@H]3[C@H](OC(=O)CCN(C)C)[C@H](OC(C)=O)[C@@]2(C)O1", "Potency": "inactive"}, {"compound": "Cn1nc(C(=O)Nc2ccc(S(=O)(=O)Nc3ncccn3)cc2)ccc1=O", "Potency": "inconclusive: 35.5 µM [inhibitor, partial curve, poor fit]"}, {"compound": "c1coc(-c2nnc3sc(-c4cccs4)nn23)c1", "Potency": "inactive"}, {"compound": "CCOc1ccc(OCCCCOc2ccccc2C(C)=O)cc1", "Potency": "inactive"}, {"compound": "COc1ccc(CCNc2oc(-c3ccco3)nc2C#N)cc1", "Potency": "inconclusive: 31.6 µM [inhibitor, partial curve]"}]}]}
